# Test results reported in article PMC4441479.
# Protein sequences, listed by entry. Tags and fused reporters are not part of them.
# UniProt Q7Z2W4: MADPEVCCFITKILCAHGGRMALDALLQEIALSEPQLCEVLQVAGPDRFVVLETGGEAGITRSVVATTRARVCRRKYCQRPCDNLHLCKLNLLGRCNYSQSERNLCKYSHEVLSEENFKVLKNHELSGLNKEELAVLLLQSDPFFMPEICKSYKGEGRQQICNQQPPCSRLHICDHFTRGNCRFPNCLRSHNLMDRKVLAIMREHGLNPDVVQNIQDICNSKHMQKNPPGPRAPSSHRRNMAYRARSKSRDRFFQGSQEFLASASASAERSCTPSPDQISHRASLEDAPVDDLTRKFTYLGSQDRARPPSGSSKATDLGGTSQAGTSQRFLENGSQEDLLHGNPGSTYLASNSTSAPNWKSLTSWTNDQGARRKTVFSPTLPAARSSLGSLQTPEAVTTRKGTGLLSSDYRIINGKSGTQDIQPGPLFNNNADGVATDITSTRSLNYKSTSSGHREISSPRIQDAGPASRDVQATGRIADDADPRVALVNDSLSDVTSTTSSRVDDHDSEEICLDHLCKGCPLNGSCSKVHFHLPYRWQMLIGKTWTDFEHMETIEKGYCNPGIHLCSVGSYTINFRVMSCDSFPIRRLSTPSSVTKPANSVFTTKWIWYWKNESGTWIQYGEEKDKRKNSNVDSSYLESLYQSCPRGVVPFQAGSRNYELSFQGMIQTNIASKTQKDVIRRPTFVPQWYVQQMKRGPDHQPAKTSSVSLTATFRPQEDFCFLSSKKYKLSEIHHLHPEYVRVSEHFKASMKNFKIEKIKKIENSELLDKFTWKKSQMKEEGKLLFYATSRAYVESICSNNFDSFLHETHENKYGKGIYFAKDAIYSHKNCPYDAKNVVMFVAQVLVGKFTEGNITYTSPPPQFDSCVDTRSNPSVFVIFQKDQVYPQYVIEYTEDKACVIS
# UniProt Q9UN81: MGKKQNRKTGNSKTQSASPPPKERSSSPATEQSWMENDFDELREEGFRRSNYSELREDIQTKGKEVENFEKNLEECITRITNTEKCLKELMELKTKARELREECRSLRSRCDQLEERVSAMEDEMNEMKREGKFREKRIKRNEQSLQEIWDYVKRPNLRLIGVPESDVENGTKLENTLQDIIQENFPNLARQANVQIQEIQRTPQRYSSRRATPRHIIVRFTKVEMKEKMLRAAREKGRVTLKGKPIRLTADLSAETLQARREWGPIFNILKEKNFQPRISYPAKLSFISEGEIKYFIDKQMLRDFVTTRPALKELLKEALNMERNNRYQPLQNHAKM
# Results are given in words; binding and its absence hold for the method and conditions named. Binding seen in cells or lysates may run through a third protein. Some entries that bind do so weakly or less than the wild type. For part of these data: Sequences can lack the tags named with a protein.
# B1: Moloney leukemia virus 10, homolog (mouse) (protein, UniProt Q9HCE1-1 1-1003)
# chain: MPSKFSCRQLREAGQCFESFLVVRGLDMETDRERLRTIYNRDFKISFGTPAPGFSSMLYGMKIANLAYVTKTRVRFFRLDRWADVRFPEKRRMKLGSDISKHHKSLLAKIFYDRAEYLHGKHGVDVEVQGPHEARDGQLLIRLDLNRKEVLTLRLRNGGTQSVTLTHLFPLCRTPQFAFYNEDQELPCPLGPGECYELHVHCKTSFVGYFPATVLWELLGPGESGSEGAGTFYIARFLAAVAHSPLAAQLKPMTPFKRTRITGNPVVTNRIEEGERPDRAKGYDLELSMALGTYYPPPRLRQLLPMLLQGTSIFTAPKEIAEIKAQLETALKWRNYEVKLRLLLHLEELQMEHDIRHYDLESVPMTWDPVDQNPRLLTLEVPGVTESRPSVLRGDHLFALLSSETHQEDPITYKGFVHKVELDRVKLSFSMSLLSRFVDGLTFKVNFTFNRQPLRVQHRALELTGRWLLWPMLFPVAPRDVPLLPSDVKLKLYDRSLESNPEQLQAMRHIVTGTTRPAPYIIFGPPGTGKTVTLVEAIKQVVKHLPKAHILACAPSNSGADLLCQRLRVHLPSSIYRLLAPSRDIRMVPEDIKPCCNWDAKKGEYVFPAKKKLQEYRVLITTLITAGRLVSAQFPIDHFTHIFIDEAGHCMEPESLVAIAGLMEVKETGDPGGQLVLAGDPRQLGPVLRSPLTQKHGLGYSLLERLLTYNSLYKKGPDGYDPQFITKLLRNYRSHPTILDIPNQLYYEGELQACADVVDRERFCRWAGLPRQGFPIIFHGVMGKDEREGNSPSFFNPEEAATVTSYLKLLLAPSSKKGKARLSPRSVGVISPYRKQVEKIRYCITKLDRELRGLDDIKDLKVGSVEEFQGQERSVILISTVRSSQSFVQLDLDFNLGFLKNPKRFNVAVTRAKALLIIVGNPLLLGHDPDWKVFLEFCKENGGYTGCPFPAKLDLQQGQNLLQGLSKLSPSTSGPHSHDYLPQEREGEGGLSLQVEPEWRNEL
# B2: V5-TEV-MX1 (protein, UniProt P20591 1-662)
# chain: MVVSEVDIAKADPAAASHPLLLNGDATVAQKNPGSVAENNLCSQYEEKVRPCIDLIDSLRALGVEQDLALPAIAVIGDQSSGKSSVLEALSGVALPRGSGIVTRCPLVLKLKKLVNEDKWRGKVSYQDYEIEISDASEVEKEINKAQNAIAGEGMGISHELITLEISSRDVPDLTLIDLPGITRVAVGNQPADIGYKIKTLIKKYIQRQETISLVVVPSNVDIATTEALSMAQEVDPEGDRTIGILTKPDLVDKGTEDKVVDVVRNLVFHLKKGYMIVKCRGQQEIQDQLSLSEALQREKIFFENHPYFRDLLEEGKATVPCLAEKLTSELITHICKSLPLLENQIKETHQRITEELQKYGVDIPEDENEKMFFLIDKVNAFNQDITALMQGEETVGEEDIRLFTRLRHEFHKWSTIIENNFQEGHKILSRKIQKFENQYRGRELPGFVNYRTFETIVKQQIKALEEPAVDMLHTVTDMVRLAFTDVSIKNFEEFFNLHRTAKSKIEDIRAEQEREGEKLIRLHFQMEQIVYCQDQVYRGALQKVREKELEEEKKKKSWDFGAFQSSSATDSSMEEIFQHLMAYHQEASKRISSHIPLIIQFFMLQTYGQQLQKAMLQLLQDKDTYSWLLKERSDTSDKRKFLKERLARLTQARRRLAQFPG
# B3: MX2-V5 (protein, UniProt P20592 1-715)
# chain: MSKAHKPWPYRRRSQFSSRKYLKKEMNSFQQQPPPFGTVPPQMMFPPNWQGAEKDAAFLAKDFNFLTLNNQPPPGNRSQPRAMGPENNLYSQYEQKVRPCIDLIDSLRALGVEQDLALPAIAVIGDQSSGKSSVLEALSGVALPRGSGIVTRCPLVLKLKKQPCEAWAGRISYRNTELELQDPGQVEKEIHKAQNVMAGNGRGISHELISLEITSPEVPDLTIIDLPGITRVAVDNQPRDIGLQIKALIKKYIQRQQTINLVVVPCNVDIATTEALSMAHEVDPEGDRTIGILTKPDLMDRGTEKSVMNVVRNLTYPLKKGYMIVKCRGQQEITNRLSLAEATKKEITFFQTHPYFRVLLEEGSATVPRLAERLTTELIMHIQKSLPLLEGQIRESHQKATEELRRCGADIPSQEADKMFFLIEKIKMFNQDIEKLVEGEEVVRENETRLYNKIREDFKNWVGILATNTQKVKNIIHEEVEKYEKQYRGKELLGFVNYKTFEIIVHQYIQQLVEPALSMLQKAMEIIQQAFINVAKKHFGEFFNLNQTVQSTIEDIKVKHTAKAENMIQLQFRMEQMVFCQDQIYSVVLKKVREEIFNPLGTPSQNMKLNSHFPSNESSVSSFTEIGIHLNAYFLETSKRLANQIPFIIQYFMLRENGDSLQKAMMQILQEKNRYSWLLQEQSETATKRRILKERIYRLTQARHALCQFSSKEIH
# B4: endogenous MOV10 (2102Ep cells) (protein, UniProt Q9HCE1-1 1-1003)
# chain: B1 chain
# B5: DHX30(v2)-HA (protein, UniProt Q7L2E3-3 1-1155)
# chain: MAASRDLLKEFPQPKNLLNSVIGRALGISHAKDKLVYVHTNGPKKKKVTLHIKWPKSVEVEGYGSKKIDAERQAAAAACQLFKGWGLLGPRNELFDAAKYRVLADRFGSPADSWWRPEPTMPPTSWRQLNPESIRPGGPGGLSRSLGREEEEDEEEELEEGTIDVTDFLSMTQQDSHAPLRDSRGSSFEMTDDDSAIRALTQFPLPKNLLAKVIQIATSSSTAKNLMQFHTVGTKTKLSTLTLLWPCPMTFVAKGRRKAEAENKAAALACKKLKSLGLVDRNNEPLTHAMYNLASLRELGETQRRPCTIQVPEPILRKIETFLNHYPVESSWIAPELRLQSDDILPLGKDSGPLSDPITGKPYVPLLEAEEVRLSQSLLELWRRRGPVWQEAPQLPVDPHRDTILNAIEQHPVVVISGDTGCGKTTRIPQLLLERYVTEGRGARCNVIITQPRRISAVSVAQRVSHELGPSLRRNVGFQVRLESKPPSRGGALLFCTVGILLRKLQSNPSLEGVSHVIVDEVHERDVNTDFLLILLKGLQRLNPALRLVLMSATGDNERFSRYFGGCPVIKVPGFMYPVKEHYLEDILAKLGKHQYLHRHRHHESEDECALDLDLVTDLVLHIDARGEPGGILCFLPGWQEIKGVQQRLQEALGMHESKYLILPVHSNIPMMDQKAIFQQPPVGVRKIVLATNIAETSITINDIVHVVDSGLHKEERYDLKTKVSCLETVWVSRANVIQRRGRAGRCQSGFAYHLFPRSRLEKMVPFQVPEILRTPLENLVLQAKIHMPEKTAVEFLSKAVDSPNIKAVDEAVILLQEIGVLDQREYLTTLGQRLAHISTDPRLAKAIVLAAIFRCLHPLLVVVSCLTRDPFSSSLQNRAEVDKVKALLSHDSGSDHLAFVRAVAGWEEVLRWQDRSSRENYLEENLLYAPSLRFIHGLIKQFSENIYEAFLVGKPSDCTLASAQCNEYSEEEELVKGVLMAGLYPNLIQVRQGKVTRQGKFKPNSVTYRTKSGNILLHKSTINREATRLRSRWLTYFMAVKSNGSVFVRDSSQVHPLAVLLLTDGDVHIRDDGRRATISLSDSDLLRLEGDSRTVRLLKELRRALGRMVERSLRSELAALPPSVQEEHGQLLALLAELLRGPCGSFDVRKTADD
# Experiments:
# [1] = molecular target: ZAP-L-FL (FLAG-tagged ZAP-L) (human) (UniProt Q7Z2W4); assay: co-IP; ZAP-L-FL cotransfected with tagged test proteins in 293T (or endogenous MOV10); IP on α-FLAG agarose in the presence or absence of RNase (legend: 50 μg/ml; methods: 25 μg/ml RNase HC and 25 μg/ml RNaseA); Western blot
# [2] = molecular target: L1-RP ORF1p with a tandem FLAG-HA tag fused to its C-terminus, expressed from pc-L1-1FH (human) (UniProt Q9UN81); assay: co-IP; as a1, IP reaction in the presence of 50 μg/ml RNase
# [3] = molecular target: L1-RP ORF1p with a tandem FLAG-HA tag fused to its C-terminus, expressed from pc-L1-1FH (human) (UniProt Q9UN81); assay: co-IP; pc-L1-1FH (ORF1p-FLAG-HA) expressed in 293T cells with tagged test proteins or with endogenous ZAP; IP of L1 RNP complexes on α-FLAG agarose without RNase; Western blot
# [4] = molecular target: endogenous ZAP (2102Ep cells) (human (endogenous in 2102Ep)) (UniProt Q7Z2W4); assay: co-IP; endogenous proteins from 2102Ep cells; α-ZC3HAV1 antibody on Protein G affinity matrix, also in the presence of RNase
Binder,binding [1],binding [2],binding [3],binding [4]
B1,binds,–,–,–
B2,binds,no binding (condition: with 50 μg/ml RNase),binds,–
B3,binds,no binding (condition: with 50 μg/ml RNase),binds,–
B4,–,–,–,binds
B5,binds,–,–,–
